Whole data set: some 110,000 compounds, median “z-score” near -0.1, cut for the highest 2% near 2. The list shows a part of the results. Calls of active or inactive are those of the source.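 The calls were made as follows: active = z-score in the third read window above 3 or below -3; inactive = the rest.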

In the assay the target is Metabotropic glutamate receptor 8 (Rattus norvegicus) (UniProt P70579). Nature of the assay: mGluR8 Gi/Go-coupled signaling modulation – cell-based, rat, thallium flux, HTS, primary screen (AID 488969). Conditions: HEK293 rat mGluR8, GIRK (G protein-gated inwardly rectifying potassium channel) thallium flux, FluoZin2; at 10 µM; stronger effect = higher value; submaximal glutamate (EC20) added with thallium.
Chain of UniProt P70579 (P70579 whole entry, looked up): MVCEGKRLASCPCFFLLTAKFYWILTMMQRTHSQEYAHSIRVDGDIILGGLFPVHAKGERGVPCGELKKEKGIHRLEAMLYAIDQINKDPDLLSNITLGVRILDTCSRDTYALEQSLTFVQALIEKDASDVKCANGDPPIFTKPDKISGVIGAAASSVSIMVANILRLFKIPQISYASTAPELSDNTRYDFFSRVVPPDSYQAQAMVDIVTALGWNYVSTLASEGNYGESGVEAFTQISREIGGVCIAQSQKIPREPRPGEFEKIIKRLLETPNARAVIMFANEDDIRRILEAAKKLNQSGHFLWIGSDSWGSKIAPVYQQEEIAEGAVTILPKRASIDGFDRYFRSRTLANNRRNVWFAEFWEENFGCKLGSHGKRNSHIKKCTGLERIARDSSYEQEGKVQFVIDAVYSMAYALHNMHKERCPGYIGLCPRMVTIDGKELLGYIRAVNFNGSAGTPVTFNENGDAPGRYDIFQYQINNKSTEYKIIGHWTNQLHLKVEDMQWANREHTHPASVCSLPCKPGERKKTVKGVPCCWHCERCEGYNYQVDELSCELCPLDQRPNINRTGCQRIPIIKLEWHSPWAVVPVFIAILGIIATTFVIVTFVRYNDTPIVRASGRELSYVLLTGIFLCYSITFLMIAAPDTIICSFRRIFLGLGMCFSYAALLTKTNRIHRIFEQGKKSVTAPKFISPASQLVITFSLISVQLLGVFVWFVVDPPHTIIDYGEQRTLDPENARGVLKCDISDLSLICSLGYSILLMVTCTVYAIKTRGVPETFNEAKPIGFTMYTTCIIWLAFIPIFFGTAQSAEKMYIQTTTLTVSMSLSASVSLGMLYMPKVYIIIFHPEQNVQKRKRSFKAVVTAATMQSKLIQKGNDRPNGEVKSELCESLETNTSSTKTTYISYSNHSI
`COc1cccc(Sc2ccccc2CN(C)C)c1` yielded a z-score of -0.139.

With `O=C(N/N=C/c1cccn1-c1cccc(C(=O)O)c1)Nc1ccccc1`, the z-score is -0.0979.

`COC(=O)c1sc2nc[nH]c(=O)c2c1C` returned a z-score of 0.0132.

In the case of `C/C(=N/NC(=O)c1ccc(C)s1)c1cccc(NC(=O)COc2ccc(Cl)cc2Cl)c1`, the z-score was -0.333.

Compound `Cn1ccs/c1=N\S(=O)(=O)c1ccc(F)cc1` gave a z-score of 0.214.

Take `C=CCn1c(SCC(=O)NCc2ccco2)nc2sc3c(c2c1=O)CCCC3`: the z-score is -0.399.

`COc1cccc(OCCOc2ccccc2OC(C)C)c1` gave a z-score of -0.186.

In turn, `COc1ccccc1CNC(=O)Cn1cccc1` returned a z-score of 0.415.

Regarding `COc1cc(/C=N/NC(=O)CN2CCCCC2)ccc1OCc1ccc(Br)cc1`, the z-score was found to be 0.0725.

Take `Cc1cccc(NC(=S)N/N=C2/CCCCc3ccccc32)c1`: the z-score is 0.797.

The compound `Cc1ccc(-c2nn3c(C)nnc3c3ccccc23)cc1S(=O)(=O)NC(C)c1ccccc1` (stereo not given) registered a z-score of -0.192.

For `Cc1ccc(S(=O)(=O)N2CCOCC2)cc1NC(=O)CSc1nccn1C`, the z-score is -0.0832.

With `CCOC(=O)C(C)Sc1ncnc2c1c(-c1ccccc1)cn2-c1ccc(OC)cc1` (stereo not given), the z-score was -0.642.

`Cc1cccc(NC(=O)C2CCCN2C(=O)Oc2ccccc2)c1` (stereo not given) returned a z-score of -0.133.

In the case of `CCOCCN1CCN(c2c(CC)c(C)nc3cc(-c4cc(OC)cc(OC)c4)nn23)CC1`, the z-score is -0.938.

For the compound `COC(=O)[C@H](Cc1ccccc1)NC(=O)NCc1ccccc1OC`, the z-score is -0.592.

For `Cc1ccc(NC(=S)NNc2ncc(C(F)(F)F)cc2Cl)c(C)c1`, the z-score is 2.04.

`CC1=CC(C)(C)N(C(=O)CSc2nnc(N)s2)c2cc(C)c(C)cc21` gave a z-score of -0.176.

As to `COc1ccc2c(c1OC)C(C1c3c(cc4c(c3OC)OCO4)CCN1C)OC2=O` (stereo not given), the z-score is -0.849.

On to `O=C(N/N=C/c1cccnc1)c1ccc(NC(=O)C(c2ccccc2)c2ccccc2)cc1`, for which the z-score was -0.154.

Consider `CC1=C(C)/C(=N\OS(=O)(=O)c2ccc(C)cc2)C=CC1=O`, for which the z-score was -0.581.

In turn, `Nc1nnc(SCc2cccnc2)s1` gave a z-score of -0.161.

`COc1ccccc1NC(=O)Cc1csc(NC(=S)Nc2ccc(C)cc2)n1` had a z-score of -0.139.

`CC1(C)C(C=C(Cl)Cl)C1C(=O)N(Cc1ccc(Cl)cc1)C1CCS(=O)(=O)C1` (stereo not given) yielded a z-score of 0.0332.

In turn, `Cc1cccc(OCC(=O)NC(=S)Nc2ccc(S(=O)(=O)NC3CCCCC3)cc2)c1` displayed a z-score of 0.114.

In turn, `CNC(=S)NNC(=O)COc1ccccc1C` had a z-score of -0.0807.

For the compound `CC(C)n1c(SCC(=O)N2c3ccccc3CCc3ccccc32)nc2c1c(=O)n(C)c(=O)n2C`, the z-score was 0.0246.

`Cc1cccc(OCCOC(=O)C2CCN(S(=O)(=O)c3cccs3)CC2)c1` showed a z-score of -0.0168.

Regarding `CCOc1cccc(C(=O)Nc2cccc(C(=O)NC(C)(C)C)c2)c1`, the z-score was -0.278.

Consider `CCn1cc(C(=O)NCC2CCCO2)c(=O)c2cc(S(=O)(=O)N(C)C3CCCCC3)ccc21` (stereo not given), for which the z-score was -0.421.

Consider `Nc1nc(NCCCN2CCOCC2)nc(Nc2ccccc2)c1[N+](=O)[O-]`, for which the z-score is -0.165.

Compound `Nc1nnc(Cc2c[nH]c3ccccc23)s1` gave a z-score of 0.101.

`COc1ccc(N2C(=O)CNC2=S)cc1` registered a z-score of 0.118.

On to `Cn1c(Cc2ccccc2)nnc1SCC(=O)c1ccc(Br)s1`, for which the z-score is -0.411.

The compound `COc1ccccc1-n1cnnc1SCC(=O)N1CC(=O)Nc2ccccc21` came in with a z-score of -0.0356.

`CCc1ccc(NC(=O)c2ccc(F)c(S(=O)(=O)NCC3COc4ccccc4O3)c2)cc1` (stereo not given) displayed a z-score of -0.151.

Regarding `CCCCSC1=C(C#N)C(c2ccccc2C)CC(=O)N1` (stereo not given), the z-score was -0.273.

`O=C(CN1CCCCC1)N1CCCc2ccccc21` had a z-score of 0.0508.

On to `O=C(NCc1cccs1)c1ccccc1F`, for which the z-score was 0.00442.

As to `CCOC(=O)Cn1c(SC)nc2sc3c(c2c1=O)CC(C)(C)OC3`, the z-score was -0.834.

Turning to `COc1ccc2nc(NC(=O)c3cnccn3)sc2c1`, the z-score was 1.17.

For the compound `CCCCN1C(=O)CCC(C(=O)O)C1c1ccccc1` (stereo not given), the z-score was -0.307.

For `Cc1ccc(NCCC(=O)c2ccc(Br)cc2)cc1`, the z-score was -0.399.

`Cc1ccc(Nc2n[nH]c(C)c2[N+](=O)[O-])cc1`: the z-score is -0.101.

`COc1cccc(-n2c(SCC(=O)Nc3nccs3)nnc2-c2ccoc2C)c1` yielded a z-score of -1.42.

For the compound `COc1ccc(C(C)=O)cc1CN1CCCCC1`, the z-score was -0.25.

`COc1cccc(C2C(=O)N(C3CCCCC3)CC(=O)N2Cc2ccc(F)cc2)c1` (stereo not given) displayed a z-score of -1.14.

As to `NC(=O)NCc1ccc(Cl)cc1`, the z-score is 0.027.

Consider `O=C(CSc1nnnn1-c1ccc(O)cc1)Nc1cccc(S(=O)(=O)N2CCCC2)c1`, for which the z-score was active: -4.69.

Turning to `O=S(=O)(c1ccc(Cl)c(F)c1)N1CCC(c2nc(-c3ccncc3)no2)CC1`, the z-score was active: 8.06.

With `Cc1ccc(C(=O)c2sc(Nc3ccccc3)c(C#N)c2N)cc1`, the z-score is -0.0679.

With `COc1cccc(CN(C)CC(=O)Nc2cccc(S(N)(=O)=O)c2)c1OC`, the z-score was -0.161.

With `CCC1(C)Cc2c(sc(NC(=O)CCC(=O)O)c2C#N)CO1` (stereo not given), the z-score was determined as 0.209.

The compound `CCOc1cc(/C=C(/C#N)c2nc3ccccc3[nH]2)ccc1OCc1ccc(C(=O)O)o1` returned a z-score of -1.53.

The compound `COc1cccc(-c2nc(CS(=O)CC(=O)NCc3ccc4c(c3)OCO4)c(C)o2)c1` (stereo not given) yielded a z-score of -0.186.

Compound `O=C(COC(=O)/C=C/c1ccco1)Nc1ncc(C(F)(F)F)cc1Cl` yielded a z-score of 0.175.

As to `Cc1ccc(C(C[N+](=O)[O-])n2nc(C)cc2C)cc1` (stereo not given), the z-score is -0.281.

`COc1ccc(Cl)cc1NC(=O)c1ocnc1C`: the z-score is 0.118.

As for `C=CCn1c(SCc2c(C)noc2C)nnc1C1COc2ccccc2O1` (stereo not given), the z-score was -0.176.

For the compound `Cc1ccc(S(=O)(=O)Nc2cc(C)c(O)c(S(=O)(=O)c3ccc(C)cc3)c2)cc1`, the z-score was -0.674.

`CCN(CC)S(=O)(=O)c1cccc(C(=O)NC(C(=O)NC2=NCCS2)C(C)C)c1` (stereo not given) came in with a z-score of 0.126.

Turning to `COc1cccc(-n2nnc3c(=O)n(CC(=O)N4CCCc5ccccc54)cnc32)c1`, the z-score is -0.135.

In the case of `Cc1cc(N2CCN(c3ccccn3)CC2)n2cc(-c3ccccc3)nc2n1`, the z-score is -0.53.

In the case of `CCOC(=O)Cc1csc(NC(=O)CSc2cc(Cl)ccc2Cl)n1`, the z-score is -0.0845.

On to `CCN(C(=O)c1cn(C)c(=O)c2cc(OC)c(OC)cc12)c1cc(C)ccc1C`, for which the z-score was -0.677.

Compound `CN(CCOc1ccc(-c2ccn(S(=O)(=O)c3c(Cl)cccc3Cl)n2)cc1)c1ccccn1` gave a z-score of 0.941.

As to `O=C1CC(c2ccccc2)Cc2nc(N3CCc4ccccc43)ncc21` (stereo not given), the z-score came to 0.33.

Take `O=C(NCCc1ccncc1)Nc1ccccc1Cl`: the z-score came out at 0.492.

`CCOC(=O)N1CCC(=NNC(=O)COc2ccc(OC)cc2)CC1` returned a z-score of -0.245.

As for `COc1ccc(NC(=O)N2CCN(c3nc(-c4cccc(OC)c4)cs3)CC2)cc1`, the z-score is -0.31.

Regarding `COC(=O)c1ccc(OCC(O)CN(CCO)CC(O)Cn2ccc3ccccc32)cc1` (stereo not given), the z-score is 0.0525.

`CNC(=O)c1ccccc1S(=O)(=O)c1ccccc1C#N` yielded a z-score of -0.166.

Take `O=C(Nc1cc(Cl)ccc1O)C1CCCO1` (stereo not given): the z-score turned out to be 0.609.

`O=C(Nc1cccc(O)c1)c1noc2c1CCCCC2` came in with a z-score of -0.322.

`Cc1ccc(/C=N/NC(=S)NC2CCS(=O)(=O)C2)cc1` (stereo not given): the z-score was determined as 0.00866.

Regarding `CC1CCN(S(=O)(=O)c2ccc(Br)s2)CC1`, the z-score was -0.167.

For the compound `COC(=O)c1ccc(Cl)c(NC(=O)CN2CCOCC2)c1`, the z-score amounted to 0.185.

Compound `O=C(NCCCn1ccnc1)c1ccco1` yielded a z-score of 0.0341.

Compound `CC1CCCC(C)N1C(=O)CSc1nnc(COc2ccccc2)n1-c1ccccc1` (stereo not given) came in with a z-score of -0.853.

As for `Cc1nnc(NC(=O)Cn2c(=O)sc3ccccc32)s1`, the z-score is -0.315.

`CN(Cc1ccccc1)C(=O)c1ccccc1NC(=O)c1ccccc1` gave a z-score of -0.212.

As for `CCOC(=O)C(C)(C)Sc1ncnc2nc[nH]c12`, the z-score turned out to be 0.318.

`COCCNC(=O)COc1ccc(C)cc1C`: the z-score was -0.299.

The compound `CCCCOP(=O)(OCCCC)C(O)c1ccc(Br)cc1` (stereo not given) displayed a z-score of -0.269.

With `O=C(COc1ccccc1)N(Cc1ccco1)c1ccc(O)cc1`, the z-score is -0.00725.

Consider `COc1ccccc1C(=O)O/N=C(\N)c1ccccc1Cl`, for which the z-score was -0.407.

`CC1(C)Cc2nc3n[nH]c(N)c3cc2CO1` had a z-score of -0.0792.

Turning to `O=C(CSCc1ccc(Cl)cc1)Nc1ccc2c(c1)OCCO2`, the z-score worked out at 0.502.

For the compound `Cc1cc2c(NCC(C)O)ncnc2s1` (stereo not given), the z-score is 0.45.

Regarding `COc1ccc(C(=O)Nc2ccc(S(=O)(=O)NC(C)C)cc2)cc1`, the z-score is -0.247.

In turn, `COC(=O)CC1=C(C(=O)OC)C(c2cc(OC)c(OC)cc2OC)C(C#N)=C(N)O1` (stereo not given) showed a z-score of -0.306.

`C/C(=N\NC(=O)c1cccc(Br)c1)c1cccc(NC(=O)c2ccc(C)o2)c1` yielded a z-score of -0.505.

Compound `Brc1ccc(-c2cn3ccccc3n2)s1` displayed a z-score of -0.391.

Regarding `COC(=O)CC1SC(=O)NC1=Nc1cccc(C)c1` (stereo not given), the z-score was -0.064.

With `CCOc1ccccc1C(=O)Nc1ccc(S(=O)(=O)N2CCOCC2)cc1`, the z-score came out at 0.254.

`Cn1c(=O)cc(SCC(=O)Nc2cccnc2)c2ccccc21` registered a z-score of 0.331.

The compound `O=C(COc1ccccc1-c1ccccc1)NCc1cccc(Cl)c1` yielded a z-score of -0.16.

Take `CC1CN(CCOc2ccc([N+](=O)[O-])cc2)CC(C)O1` (stereo not given): the z-score is -0.621.

As to `O=C(C1CC1)N1CCc2cc(S(=O)(=O)N3CCOCC3)ccc21`, the z-score is 0.0843.

`O=C(Nc1ccc(Cl)cc1)N1CCc2[nH]c3ccccc3c2C1` displayed a z-score of -0.865.

Regarding `CCn1c(/C=N/c2nc3ccccc3n2C)nc2ccccc21`, the z-score is -0.0248.

`O=C(NC1=NCCS1)[C@H](Cc1ccccc1)N1C(=O)c2ccccc2C1=O` yielded a z-score of -0.192.

For `COC(=O)c1sc(Nc2ccccc2)nc1C`, the z-score is -0.75.

In the case of `CC(C)C(=O)NCCCc1ccccc1`, the z-score is -0.344.

The compound `CSc1nc(C)cc(SCC(=O)N/N=C/c2ccccc2)n1` registered a z-score of -0.421.

Turning to `COc1nc2c(s1)C(=O)NCCC2`, the z-score was -0.142.

In turn, `CCOc1ccccc1-n1c(=O)c2ccccc2c2ccccc2c1=O` came in with a z-score of -0.269.

`Cc1cc(C)c[n+](-c2nc3ccccc3nc2[N-]S(=O)(=O)c2ccc(Cl)cc2)c1` gave a z-score of -0.0439.

On to `Cn1c(=O)c2c(nc(NC3CCCCC3)n2Cc2ccccc2)n(C)c1=O`, for which the z-score is -1.93.

The compound `O=C1CC2C(CC(OC(=O)c3ccc(-c4ccccc4)cc3)C2CO)O1` (stereo not given) yielded a z-score of -0.152.

As to `Nc1nnc(SCC(=O)OCc2ccccc2)s1`, the z-score is -0.0572.

Take `CCC(=O)c1cc(F)c(N2CCN(C(=O)Cc3ccccc3)CC2)cc1C`: the z-score turned out to be 0.99.

In turn, `CCOc1ccc2[nH]c(=O)c(CN(CCc3ccccc3)C(=O)c3cnccn3)cc2c1` registered a z-score of -0.596.

For the compound `c1cncc(-c2nc3cc4ccccc4cc3[nH]2)c1`, the z-score is -0.554.

`COCCNC(=O)c1ccc2c(=O)n(Cc3ccco3)c(SCC(=O)NC3CCCC3)nc2c1` had a z-score of -0.0789.

Values taken from PubChem BioAssay AID488969 (Vanderbilt High Throughput Screening Facility, 2010).
